We go through 153 variants from a collection of fitness landscapes (doi:10.1126/science.1257360).

Some of the results follow.

B1: PhoQ; a variant is named by its letters at X, in order, P23837 (parent)
chain: MKKLLRLFFPLSLRVRFLLATAAVVLVLSLAYGMVALIGYSVSFDKTTFRLLRGESNLFYTLAKWENNKLHVELPENIDKQSPTMTLIYDENGQLLWAQRDVPWLMKMIQPDWLKSNGFHEIEADVNDTSLLLSGDHSIQQQLQEVREDDDDAEMTHSVAVNVYPATSRMPKLTIVVVDTIPVELKSSYMVWSWFIYVLSANLLLVIPLLWVAAWWSLRPIEALAKEVRELEEHNRELLNPATTRELTSLVRNLNRLLKSERERYDKYRTTLTDLTHSLKTPLXXLQXXLRSLRSEKMSVSDAEPVMLEQISRISQQIGYYLHRASMRGGTLLSRELHPVAPLLDNLTSALNKVYQRKGVNISLDISPEISFVGEQNDFVEVMGNVLDNACKYCLEFVEISARQTDEHLYIVVEDDGPGIPLSKREVIFDRGQRVDTLRPGQGVGLAVAREITEQYEGKIVAGESMLGGARMEVIFGRQHSAPKDE

Variants of B1 are the subject of this assay. Kind of assay: enrichment ratio after two sorts for PhoP signalling (ratio (wild type AVST 3.29)); higher = more functional. The conditions noted are these: with PhoP (E. coli).
On to GIFR, for which the enrichment ratio worked out at 0.521.
Under YYRQ stands at most 0.25.
With SRFG, the enrichment ratio was at most 0.25.
Under EFHV stands at most 0.25.
Then HSAV, with at most 0.25; and TNYL, with 2.54; and KLRG, with at most 0.25.
As to AFVQ, the enrichment ratio is at most 0.25.
Under ATGA stands at most 0.25.
Turning to VEPD, the enrichment ratio is at most 0.25.
Under QPCL stands at most 0.25; under EKDV, at most 0.25.
Under AYLK stands at most 0.25; under TCNK, at most 0.25; under PFQL, at most 0.25.
For the variant YGIN, the enrichment ratio is at most 0.25.
For the variant YGNV, the enrichment ratio is at most 0.25.
Then STGY, with 8.87.
As for FEMS, the enrichment ratio was 5.74.
Then TGLN, with 25.4; and HIDW, with at most 0.25.
Take EEQP: the enrichment ratio was at most 0.25.
Take KVRE: the enrichment ratio was at most 0.25.
Then KQHW, with at most 0.25; and RATW, with at most 0.25.
Then AFCN, with at most 0.25; and LFDV, with at most 0.25.
Under GKKY stands at most 0.25; under FPYV, at most 0.25; under GCCH, at most 0.25.
As to GIYS, the enrichment ratio is at most 0.25.
Consider VVHL, for which the enrichment ratio is at most 0.25.
Consider NNHT, for which the enrichment ratio was at most 0.25.
Turning to SREG, the enrichment ratio was at most 0.25.
Turning to EIWG, the enrichment ratio is at most 0.25.
Then AWDH, with at most 0.25; and KFWE, with at most 0.25; and THWK, with at most 0.25.
AKAR: the enrichment ratio was at most 0.25.
Under FAER stands at most 0.25; under LKCL, at most 0.25.
Under WFLE stands at most 0.25.
Then QDCL, with at most 0.25; and HDEA, with at most 0.25.
FYDP: the enrichment ratio is at most 0.25.
Then RVFS, with at most 0.25; and ACCI, with 26.9; and GPPF, with at most 0.25.
Then EGHL, with at most 0.25; and LPES, with at most 0.25.
For LDIL, the enrichment ratio is at most 0.25.
As for IFAD, the enrichment ratio was at most 0.25.
As for RGQP, the enrichment ratio is at most 0.25.
Then TNYR, with at most 0.25; and MYLD, with at most 0.25.
As for THWW, the enrichment ratio was at most 0.25.
Turning to EACK, the enrichment ratio was at most 0.25.
As to TFTM, the enrichment ratio was determined as 3.86.
For the variant WLHG, the enrichment ratio is at most 0.25.
RHFH: the enrichment ratio is at most 0.25.
Consider HGIG, for which the enrichment ratio is at most 0.25.
Then YMLV, with 0.756; and GDAG, with at most 0.25; and SNLM, with 12.
On to QFEF, for which the enrichment ratio was at most 0.25.
Consider QLQV, for which the enrichment ratio was at most 0.25.
Under TWGG stands at most 0.25.
ARMW: the enrichment ratio is at most 0.25.
Under DMLA stands at most 0.25.
Under TCVW stands at most 0.25.
Then REAM, with at most 0.25; and AKHD, with at most 0.25; and SGCN, with 11.5.
On to REHC, for which the enrichment ratio is at most 0.25.
On to TYER, for which the enrichment ratio was at most 0.25.
Then KRQV, with at most 0.25.
Then GHGY, with at most 0.25; and NSWN, with at most 0.25.
In the case of QMSM, the enrichment ratio was 0.862.
Then PKRT, with at most 0.25; and MEMV, with 14.8; and MIVH, with at most 0.25.
As to TLGP, the enrichment ratio is at most 0.25.
With RQYL, the enrichment ratio was at most 0.25.
Under TLSI stands 18.6.
With RMRA, the enrichment ratio is at most 0.25.
With DPWV, the enrichment ratio is at most 0.25.
On to LQQC, for which the enrichment ratio is at most 0.25.
Under YNIE stands at most 0.25; under NGAD, at most 0.25; under DSAY, at most 0.25.
Consider GFFE, for which the enrichment ratio is at most 0.25.
For RAYK, the enrichment ratio is at most 0.25.
Under RQFF stands at most 0.25; under LESP, at most 0.25.
Under AYLH stands at most 0.25; under LTGL, at most 0.25.
HGYT: the enrichment ratio is at most 0.25.
As for PLMS, the enrichment ratio is at most 0.25.
As to LIIA, the enrichment ratio was at most 0.25.
As for QYLG, the enrichment ratio is at most 0.25.
Then WGAG, with at most 0.25.
With LMDG, the enrichment ratio was at most 0.25.
Then ACCG, with 25.4; and DFMP, with at most 0.25; and HQDC, with at most 0.25.
Turning to APVY, the enrichment ratio is at most 0.25.
As to HWDQ, the enrichment ratio is at most 0.25.
Then MTWC, with at most 0.25; and AFNK, with at most 0.25; and LNHN, with at most 0.25.
Then MRGD, with at most 0.25.
Then SYQF, with at most 0.25; and NEVM, with 7.03; and GSGH, with at most 0.25.
Regarding NCLW, the enrichment ratio is at most 0.25.
Then FPNS, with at most 0.25.
Then MPAM, with at most 0.25; and IKPH, with at most 0.25.
Turning to VRRR, the enrichment ratio is at most 0.25.
With VFLY, the enrichment ratio was at most 0.25.
Then IVDD, with at most 0.25.
For the variant EYGT, the enrichment ratio is at most 0.25.
Then IHYL, with at most 0.25.
Under HAPK stands at most 0.25; under KAIH, at most 0.25.
Under LVWD stands at most 0.25; under PLSN, at most 0.25; under SDMV, 10.1.
For THMM, the enrichment ratio was determined as 17.6.
Consider PTRW, for which the enrichment ratio was at most 0.25.
Take MATR: the enrichment ratio is at most 0.25.
Under TGYV stands 9.15.
On to AQEI, for which the enrichment ratio is at most 0.25.
Then KFMI, with at most 0.25.
Under MRQQ stands at most 0.25.
Take WIKP: the enrichment ratio was at most 0.25.
Under IPIC stands at most 0.25; under MTFF, 5.57.
NMCL: the enrichment ratio is at most 0.25.
Take KPFH: the enrichment ratio is at most 0.25.
Regarding GSIP, the enrichment ratio is at most 0.25.
Then FTTQ, with at most 0.25; and QRDL, with at most 0.25.
Take FHMQ: the enrichment ratio is at most 0.25.
Then ATCH, with at most 0.25; and RLQG, with at most 0.25.
Then KNPH, with at most 0.25; and RYMA, with at most 0.25; and TRML, with 4.97.
Under RFYL stands 0.349.
For the variant HLYW, the enrichment ratio is at most 0.25.
For YFRI, the enrichment ratio is at most 0.25.
